The supplement of paper PMC8728848
This is one part of the list.

Tests used:
Experiment in all cases: glycan array binding signal (z-score within array); higher = stronger binding
Conditions in all cases: glycan notation: IUPAC condensed, linker removed
[1] = molecular target: Man(a1-3)[Man(a1-6)]Man(a1-6)[Man(a1-3)]Man
How it was run: (§1)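 The Consortium for Functional Glycomics database supplied 3228 glycan arrays, of which those lacking an available protein sequence were dropped. The binding signal, a within-array Z-score, was averaged across arrays of the same protein sequence and across linkers. Negative scores can be read as non-binding.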

[2] = molecular target: Man(a1-3)[Man(a1-6)]Man(a1-6)[Man(a1-3)]Man(b1-4)GlcNAc(b1-4)GlcNAc
How it was run: as §1

[3] = molecular target: Man(a1-3)[Man(a1-6)]Man(b1-4)GlcNAc(b1-4)GlcNAc
How it was run: as §1

[4] = molecular target: Man(a1-3)[Man(a1-6)]Man(b1-4)GlcNAc(b1-4)[Fuc(a1-6)]GlcNAc
How it was run: as §1

Man(a1-6)Man = molecular target: Man(a1-6)Man
How it was run: as §1

Man(b1-4)GlcNAc = molecular target: Man(b1-4)GlcNAc
How it was run: as §1

MurNAc(b1-4)GlcNAc = molecular target: MurNAc(b1-4)GlcNAc
How it was run: as §1

Neu5Ac(a2-3)Gal = molecular target: Neu5Ac(a2-3)Gal
How it was run: as §1

[5] = molecular target: Neu5Ac(a2-3)Gal(b1-3)GalNAc
How it was run: as §1

[6] = molecular target: Neu5Ac(a2-3)Gal(b1-3)GalNAc(b1-3)Gal(a1-4)Gal(b1-4)Glc
How it was run: as §1

[7] = molecular target: Neu5Ac(a2-3)Gal(b1-3)GalNAc(b1-4)Gal(b1-4)Glc
How it was run: as §1

[8] = molecular target: Neu5Ac(a2-3)Gal(b1-3)GalNAc(b1-4)[Neu5Ac(a2-3)]Gal(b1-4)Glc
How it was run: as §1

[9] = molecular target: Neu5Ac(a2-3)Gal(b1-3)GalNAc(b1-4)[Neu5Ac(a2-8)Neu5Ac(a2-3)]Gal(b1-4)Glc
How it was run: as §1

[10] = molecular target: Neu5Ac(a2-3)Gal(b1-3)GalNAc6S
How it was run: as §1

[11] = molecular target: Neu5Ac(a2-3)Gal(b1-3)GlcNAc
How it was run: as §1

[12] = molecular target: Neu5Ac(a2-3)Gal(b1-3)GlcNAc(b1-2)Man
How it was run: as §1

[13] = molecular target: Neu5Ac(a2-3)Gal(b1-3)GlcNAc(b1-2)Man(a1-3)[GlcNAc(b1-4)][Neu5Ac(a2-3)Gal(b1-3)GlcNAc(b1-2)Man(a1-6)]Man(b1-4)GlcNAc(b1-4)GlcNAc
How it was run: as §1

[14] = molecular target: Neu5Ac(a2-3)Gal(b1-3)GlcNAc(b1-2)Man(a1-3)[Neu5Ac(a2-3)Gal(b1-3)GlcNAc(b1-2)Man(a1-6)]Man(b1-4)GlcNAc(b1-4)GlcNAc
How it was run: as §1

[15] = molecular target: Neu5Ac(a2-3)Gal(b1-3)GlcNAc(b1-2)[Neu5Ac(a2-3)Gal(b1-3)GlcNAc(b1-4)]Man(a1-6)[Neu5Ac(a2-3)Gal(b1-3)GlcNAc(b1-2)Man(a1-3)]Man(b1-4)GlcNAc(b1-4)GlcNAc
How it was run: as §1

[16] = molecular target: Neu5Ac(a2-3)Gal(b1-3)GlcNAc(b1-3)Gal(b1-3)GlcNAc
How it was run: as §1

[17] = molecular target: Neu5Ac(a2-3)Gal(b1-3)GlcNAc(b1-3)Gal(b1-4)GlcNAc
How it was run: as §1

[18] = molecular target: Neu5Ac(a2-3)Gal(b1-3)GlcNAc(b1-3)GalNAc
How it was run: as §1

[19] = molecular target: Neu5Ac(a2-3)Gal(b1-3)GlcNAc(b1-6)GalNAc
How it was run: as §1

[20] = molecular target: Neu5Ac(a2-3)Gal(b1-3)GlcNAc6S
How it was run: as §1

[21] = molecular target: Neu5Ac(a2-3)Gal(b1-3)[Fuc(a1-4)]GlcNAc
How it was run: as §1

[22] = molecular target: Neu5Ac(a2-3)Gal(b1-3)[Fuc(a1-4)]GlcNAc(b1-3)Gal(b1-3)[Fuc(a1-4)]GlcNAc
How it was run: as §1

[23] = molecular target: Neu5Ac(a2-3)Gal(b1-3)[Fuc(a1-4)]GlcNAc(b1-3)Gal(b1-4)[Fuc(a1-3)]GlcNAc
How it was run: as §1

[24] = molecular target: Neu5Ac(a2-3)Gal(b1-3)[GlcNAc(b1-6)]GalNAc
How it was run: as §1

[25] = molecular target: Neu5Ac(a2-3)Gal(b1-3)[Neu5Ac(a2-6)]GalNAc
How it was run: as §1

[26] = molecular target: Neu5Ac(a2-3)Gal(b1-3)[Neu5Ac(a2-6)]GlcNAc(b1-3)[Fuc(a1-3)[Gal(b1-4)]GlcNAc(b1-6)]Gal(b1-4)Glc
How it was run: as §1

[27] = molecular target: Neu5Ac(a2-3)Gal(b1-3)]Neu5Ac(a2-3)Gal(b1-4)]GlcNAc
How it was run: as §1

Neu5Ac(a2-3)Gal(b1-4)Glc = molecular target: Neu5Ac(a2-3)Gal(b1-4)Glc
How it was run: as §1

[28] = molecular target: Neu5Ac(a2-3)Gal(b1-4)GlcNAc
How it was run: as §1

[29] = molecular target: Neu5Ac(a2-3)Gal(b1-4)GlcNAc(b1-2)Man
How it was run: as §1

[30] = molecular target: Neu5Ac(a2-3)Gal(b1-4)GlcNAc(b1-2)Man(a1-3)[GlcNAc(b1-4)][Neu5Ac(a2-3)Gal(b1-4)GlcNAc(b1-2)Man(a1-6)]Man(b1-4)GlcNAc(b1-4)GlcNAc
How it was run: as §1

[31] = molecular target: Neu5Ac(a2-3)Gal(b1-4)GlcNAc(b1-2)Man(a1-3)[Neu5Ac(a2-3)Gal(b1-4)GlcNAc(b1-2)Man(a1-6)]Man(b1-4)GlcNAc(b1-4)GlcNAc
How it was run: as §1

[32] = molecular target: Neu5Ac(a2-3)Gal(b1-4)GlcNAc(b1-2)Man(a1-3)[Neu5Ac(a2-3)Gal(b1-4)GlcNAc(b1-2)Man(a1-6)]Man(b1-4)GlcNAc(b1-4)[Fuc(a1-6)]GlcNAc
How it was run: as §1

[33] = molecular target: Neu5Ac(a2-3)Gal(b1-4)GlcNAc(b1-2)Man(a1-3)[Neu5Ac(a2-6)Gal(b1-4)GlcNAc(b1-2)Man(a1-6)]Man(b1-4)GlcNAc(b1-4)GlcNAc
How it was run: as §1

B1: OGAN (protein)
chain: MVQKESQATLEERESELSSNPAASAGASLEPPAAPAPGEDNPAGAGGAAVAGAAGGARRFLCGVVEGFYGRPWVMEQRKELFRRLQKWELNTYLYAPKDDYKHRMFWREMYSVEEAEQLMTLISAAREYEIEFIYAISPGLDITFSNPKEVSTLKRKLDQVSQFGCRSFALLFNDIDHNMCAADKEVFSSFAHAQVSITNEIYQYLGEPETFLFCPTEYCGTFCYPNVSQSPYLRTVGEKLLPGIEVLWTGPKVVSKEIPVESIEEVSKIIKRAPVIWDNIHANDYDQKRLFLGPYKGRSTELIPRLKGVLTNPNCEFEANYVAIHTLATWYKSNMNGVRKDVVMTDSEDSTVSIQIKLENEGSDEDIETDVLYSPQMALKLALTEWLQEFGVPHQY
- glycan array binding signal (z-score) [1]: -0.057
- glycan array binding signal (z-score) [2]: -0.071
- glycan array binding signal (z-score) [3]: -0.05
- glycan array binding signal (z-score) [4]: -0.101
- glycan array binding signal (z-score) (Man(a1-6)Man): -0.073
- glycan array binding signal (z-score) (Man(b1-4)GlcNAc): -0.074
- glycan array binding signal (z-score) (MurNAc(b1-4)GlcNAc): -0.024
- glycan array binding signal (z-score) (Neu5Ac(a2-3)Gal): -0.063
- glycan array binding signal (z-score) [5]: -0.081
- glycan array binding signal (z-score) [6]: -0.065
- glycan array binding signal (z-score) [7]: -0.065
- glycan array binding signal (z-score) [8]: -0.059
- glycan array binding signal (z-score) [9]: -0.051
- glycan array binding signal (z-score) [10]: -0.079
- glycan array binding signal (z-score) [11]: -0.018
- glycan array binding signal (z-score) [12]: -0.09
- glycan array binding signal (z-score) [13]: -0.045
- glycan array binding signal (z-score) [14]: -0.069
- glycan array binding signal (z-score) [15]: -0.026
- glycan array binding signal (z-score) [16]: -0.053
- glycan array binding signal (z-score) [17]: -0.062
- glycan array binding signal (z-score) [18]: -0.025
- glycan array binding signal (z-score) [19]: -0.053
- glycan array binding signal (z-score) [20]: -0.071
- glycan array binding signal (z-score) [21]: -0.076
- glycan array binding signal (z-score) [22]: -0.012
- glycan array binding signal (z-score) [23]: -0.105
- glycan array binding signal (z-score) [24]: -0.088
- glycan array binding signal (z-score) [25]: -0.022
- glycan array binding signal (z-score) [26]: -0.023
- glycan array binding signal (z-score) [27]: -0.039
- glycan array binding signal (z-score) (Neu5Ac(a2-3)Gal(b1-4)Glc): -0.069
- glycan array binding signal (z-score) [28]: -0.023
- glycan array binding signal (z-score) [29]: -0.076
- glycan array binding signal (z-score) [30]: -0.046
- glycan array binding signal (z-score) [31]: -0.077
- glycan array binding signal (z-score) [32]: -0.052
- glycan array binding signal (z-score) [33]: -0.048
